From PubChem BioAssay AID1508623 (National Center for Advancing Translational Sciences (NCATS), 2021)
The whole screen tested about 48,000 compounds, of which about 450 (0.94%) were called active. About 19% were inconclusive and are not listed. Calls come from the whole dose curve; as a rule, active = well fitted inhibition curve with a large enough effect; inconclusive = small, poorly fitted or top-dose-only effect; inactive = no such curve, though single readings can be large or run the other way. Some of the results follow.

assay: Primary qHTS for Identification of Small Molecule Inhibitors of Huntingtin Promoter Activity; details: HEK293 HTT promoter firefly luciferase reporter (activity 0% = vehicle and -100% = no light), 24 h; series mostly up to 57.5 µM; activity change, negative = inhibition: at the top concentration; note: nearly all actives have a fitted effect of over 50% in size
In short: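 HEK293 cells carrying firefly luciferase reporters were seeded at 2,500 per well in Opti-MEM and cultured for 24 h. They were then treated with compounds at up to 57.5 uM final for 24 h at 37 degrees C before Dual-Glo luminescence readout.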
Potency is the fitted concentration of half-maximal effect.

SMILES | activity change, negative = inhibition | Potency
COc1cccc(NC(=O)c2ccc3nc(CCc4ccccc4)oc3c2)c1 | inactive: 1.06% | 
COc1ccc(Cl)cc1NC(=O)c1c(NCc2ccc(C)o2)sc2c1CCCCC2 | inactive: -10.9% | 
CCCn1c2ccccc2c2cnn(CC(=O)N(C)c3ccc(F)cc3)c(=O)c21 | inactive: -4.53% | 
COc1cccc(CSc2nc3ccccc3c3nc(CCn4c(C)nc5ccccc54)nn23)c1 | inactive: -24.3% | 
O=C(NCc1ccc2c(c1)CCN2C(=O)c1ccc(F)cc1)c1cc2ccccc2[nH]1 | inactive: -5.66% | 
COc1ccccc1CNC(=O)CCC(=O)N1CC2CCCN2c2ccccc21 (stereo unspecified) | inactive: -16.8% | 
c1ccc(CNc2nc3c(-c4ccccc4)nnn3c3ccccc23)cc1 | inactive: 33.7% | 
COc1cccc(NC(=O)C2CCCN(S(=O)(=O)c3c(C)nn(C)c3C)C2)c1 (stereo unspecified) | inactive: -23.8% | 
O=C(Cc1ccc(Cl)cc1)Nc1ccc2nn(-c3ccc(Cl)cc3)nc2c1 | inactive: 1.35% | 
NC(N)=NC(N)=NCCc1ccccc1 | inactive | 
Cc1ccc(CNC(=O)c2ccc(Cn3c(=O)c4ccccc4n(CC(=O)Nc4ccc(C)cc4C)c3=O)cc2)cc1 | inactive: -8.16% | 
CCOc1ccc(OCC)c(NS(=O)(=O)c2cc(-c3cc(C)no3)ccc2C)c1 | inactive: -13.4% | 
CCOc1ccc(CCNC(=O)c2cn(CC)c3ccc(S(=O)(=O)N4CCc5ccccc5C4)cc3c2=O)cc1OCC | inactive: 9.16% | 
O=C(Nc1ccccc1-c1cn2c(CN3CCNCC3)csc2n1)c1cnc2ccccc2n1 | inactive: -10.5% | 
COc1ccc(-c2cc(C(F)(F)F)nc(S(=O)(=O)CCCC(=O)Nc3cccc(O)c3)n2)cc1OC | inactive: -9.41% | 
CCC(=O)Oc1ccc(/C=C(\C#N)c2nc3ccccc3[nH]2)cc1OC | inactive: 15.8% | 
CCc1ccc(NCc2cc3cc4c(cc3n(CC(=O)Nc3ccc(C)cc3)c2=O)OCO4)cc1 | inactive: -24.5% | 
CCOc1ccc(NC(=O)C2CCCN(S(=O)(=O)c3cccc4nonc34)C2)cc1 (stereo unspecified) | inactive: -17.8% | 
Cc1ccc(Nc2c(-c3cccs3)nc3nc(C)cc(C)n23)cc1 | inactive: 46.4% | 
CC(=O)c1ccc(NC(=O)CSc2nnc3ccc(-c4ccc(Cl)cc4)nn23)cc1 | inactive: -8.27% | 
Cc1oc2ncnc(N3CCCCC3)c2c1C(=O)N1CCN(c2cccc(C(F)(F)F)c2)CC1 | inactive: -15.3% | 
CCOc1ccc(NC(=O)NCc2c(-n3cccc3)sc3c2CCCC3)cc1 | inactive: -15.3% | 
CCN(CC)c1cc(C)c2cc(NC(=O)c3ccccc3OC)ccc2n1 | inactive: -3.11% | 
Cc1cc(C)c(NC(=O)CSc2nc3nc(C)cc(C)n3n2)c(C)c1 | inactive: 33.3% | 

SMILES | activity change, negative = inhibition | Potency
Cc1cc(C)c(NC(=O)CSc2ccc(-c3sc(-c4ccccc4)nc3C)nn2)c(C)c1 | inactive: -9.25% | 
CCCCn1c(SCC(=O)NCCCOC)nc2c(sc3ccccc32)c1=O | inactive: -8.88% | 
CCn1c(=O)c2sccc2n2c(CCCC(=O)N3CCN(c4cc(Cl)ccc4C)CC3)nnc12 | inactive: -9.33% | 
COc1ccccc1N1CCN(c2ncccc2-c2nc(-c3ccc(Cl)cc3)no2)CC1 | inactive: 21.7% | 
C[C@H](CCC(=O)O)[C@H]1CCC2C3C[C@H](O)[C@@H]4C[C@H](O)CC[C@]4(C)C3CC[C@@]21C (stereo partly specified) | inactive: -3.34% | 
CCCCOc1cccc(C2c3c(oc4ccccc4c3=O)C(=O)N2c2ccccn2)c1 (stereo unspecified) | inactive: -5.41% | 
O=c1c2c(-c3ccccc3)ccnc2[nH]n1-c1ccccc1 | inactive: 41.5% | 
CCCC1=Nc2cc(C(=O)NC(C)c3ccccc3)ccc2Sc2ccc(C)cc21 (stereo unspecified) | inactive: -32.1% | 
Cc1nn(C(=O)c2c(F)cccc2F)c(C)c1S(=O)(=O)N1CCOCC1 | inactive: -15.9% | 
COc1ccc(CCNC(=O)c2ccc3c(c2)N(Cc2ccccc2F)C(=O)c2ccccc2S3(=O)=O)cc1OC | inactive: 22.3% | 
O=C(NCCc1ccccc1)c1cc(S(=O)(=O)N2CCCCC2)c[nH]1 | inactive: -23.6% | 
CCOC(=O)c1cnc2c(ccc3ccccc32)c1Nc1cccc(OC)c1 | inactive: -32.3% [at 11.5 µM] | 
Cc1cccc(N2CCN(C(=O)c3cc4c(=O)oc5ccccc5c4s3)CC2)c1C | inactive: -4.03% | 
Cc1cc(C(F)F)n2nc(C(=O)Nc3c(C)cccc3C)nc2n1 | inactive: -5.23% | 
CCOc1ccc(C(=O)c2cn(Cc3ccccc3OC)c3ccc(F)cc3c2=O)cc1 | inactive: -4.51% | 
Oc1c(C(c2ccccc2Cl)N2CCCC2)sc2nc(-c3ccco3)nn12 (stereo unspecified) | inactive: -27.8% | 
CC(=O)Nc1ccc(NC(=O)CSc2nc3ccccc3nc2N2CCOCC2)cc1 | inactive: -11.9% | 
CCOc1ccc(N(CC(=O)NCc2ccccc2Cl)S(=O)(=O)c2c(C)[nH]c(=O)[nH]c2=O)cc1 | inactive: 24.2% [at 11.5 µM] | 
COc1ccc(-n2c(CC3C(=O)N(C)c4ccc(C)cc43)nc3ccccc3c2=O)cc1 (stereo unspecified) | inactive: -12.7% | 
COc1ccc(CCNc2ncnc3c2cnn3-c2ccc(C)cc2)cc1 | inactive: -15.6% | 
O=C(O)[C@H](O)c1ccccc1 | inactive: 0.475% | 
Fc1ccc(CN2CCc3nc(Nc4ccccc4)ncc3C2)cc1F | inactive: -30% | 
COc1ccc(-c2noc(CNC(=O)c3ccco3)n2)cc1 | inactive: -4.67% | 
Cc1ccc(CNC(=O)CSc2cc(C)[nH]c(=O)n2)cc1 | inactive: -9.39% | 

SMILES | activity change, negative = inhibition | Potency
CC1CCN(C(=O)CSc2nc(-c3ccccc3)no2)CC1 | inactive: 21.6% | 
COc1cc(C(=O)N2CCC(c3nc4ccccc4o3)CC2)cc(OC)c1OC | inactive: 0.147% | 
COc1ccc(C(c2c(O)cc(C)n(Cc3ccco3)c2=O)N2CCCCC2)cc1OC (stereo unspecified) | inactive: -4.5% | 
C(=C\c1ccccc1)/CN1CCN(C(c2ccccc2)c2ccccc2)CC1 | inactive: 0.915% | 
CCN(CC)CC(=O)Oc1ccc(NC(C)=O)cc1 | inactive: -0.0227% | 
COc1cc(Cl)c(C)cc1NC(=O)c1ccc2c(Cl)c3c(nc2c1)CCC3 | inactive: -2.89% | 
CCOc1cccc(CC(=O)N2CCc3c([nH]c4ccccc34)C2c2ccc(Cl)cc2)c1OCC (stereo unspecified) | inactive: -26.3% | 
CCOc1ccccc1NC(=O)c1c(NC(=O)c2ccccc2)sc2c1CCCC2 | inactive: -25.9% | 
CCOc1ccccc1CNC(=O)c1cnc2sc(N3CCCCCC3)nn2c1=O | inactive: -16.4% | 
CCc1ccc(Oc2c(C(F)(F)F)oc3c(CN4CCN(C)CC4)c(O)ccc3c2=O)cc1 | inactive: -21.3% | 
O=C(Cn1cc(SCc2cccc(Cl)c2)c2ccccc21)N1CCCCCC1 | inactive: -13.9% | 
COc1ccc(-n2ccn(CC(=O)NCCc3ccccc3)c(=O)c2=O)cc1OC | inactive: -16.2% | 
COc1ccccc1CN(Cc1ccco1)c1cnc(S(C)(=O)=O)nc1C(=O)Nc1cc(C)ccc1C | inactive: -19.9% | 
COc1cccc(CNC(=O)Cn2ncc3c4ccccc4n(Cc4ccccc4)c3c2=O)c1 | inactive: 3.07% | 
COc1cccc(C(=O)NCc2nc(-c3ccccc3)no2)c1OC | inactive: -15% | 
O=S(=O)(O)c1ccc(O)cc1 | inactive: 9.63% | 
Cc1cccc(NC(=O)CCc2c(C)nc3nc(CNC(=O)c4cccc(F)c4)nn3c2C)c1 | inactive: 19.2% | 
COc1ccc(-c2noc(CSc3nnc(-c4ccncc4)n3-c3ccc(C)cc3)n2)cc1OC | inactive: -3.4% | 
O=C(Cn1c(=O)n(Cc2ccc3c(c2)OCO3)c(=O)c2oc3ccccc3c21)Nc1ccc(F)cc1 | inactive: -9.12% | 
CCn1cc(CNC(=O)c2cc(-c3ccc(C)c(C)c3)nc3ccccc23)c(C)n1 | inactive: -14% | 
CC1CCCCN1C(=O)Cn1c(SCC(=O)N(C)c2ccccc2)nc2ccccc21 (stereo unspecified) | inactive: 2.55% | 
Cc1ccc(NC(=O)c2ccc(=O)n(CC(=O)Nc3cccc(C)c3)n2)cc1 | inactive: -17.6% | 
O=C(C1CCCCC1)N1CC(=O)N2CCc3ccccc3C2C1 (stereo unspecified) | inactive | 
Cc1cccc(C(c2sc3nc(-c4ccco4)nn3c2O)N2CCN(c3ccccc3)CC2)c1 (stereo unspecified) | inactive: 3.53% | 

SMILES | activity change, negative = inhibition | Potency
COC(=O)c1ccccc1NC(=O)c1cc2nc(-c3ccc(OC)cc3)cc(C(F)(F)F)n2n1 | inactive: -0.107% | 
Cc1ccc(NC(=O)c2ccc(NC(=O)N3CCSc4nc(C)cc(C)c43)cc2)c(Cl)c1 | inactive: -19.8% | 
O=C(Cn1nc2c(cc1=O)CCCC2)Nc1ccccc1C(F)(F)F | inactive: 9.9% | 
Cc1ccc(C)c(NC(=O)c2ccc3nc(CCc4ccccc4)oc3c2)c1 | inactive: 9.48% | 
O=C(CSc1n[nH]c(-c2ccccc2Cl)n1)N1CCN(c2ccccc2)CC1 | inactive: 0.121% | 
CCOC(=O)CNS(=O)(=O)c1cc(-c2nnc(Nc3cccc(O)c3)c3ccccc23)ccc1C | inactive: -1.5% | 
CCCc1ccc(C2Sc3ccccc3NC3=C2C(=O)c2ccccc23)cc1 (stereo unspecified) |  | active: 31.6 µM
Cc1cc(NC(=O)c2cccs2)cc(-c2nc3cc(Cl)ccc3o2)c1O | inactive: -11.3% | 
C[C@@H]1CCO[C@H]2Cn3cc(C(=O)NCc4ccc(F)cc4F)c(=O)c(O)c3C(=O)N12 | inactive: 8.51% | 
CCC(=O)NCc1cc(-c2nn(C)c(=O)c3ccccc23)ccc1OC | inactive: -4.41% | 
CCC(C)(C)C1CCc2c(sc(NC(=O)C3c4ccccc4Oc4ccccc43)c2C(N)=O)C1 (stereo unspecified) | inactive: -10.5% | 
O=S(=O)(c1ccccc1)c1nc(-c2cccs2)oc1SCc1ccccc1F | inactive: -15.8% | 
Cc1ccc(C)c(N2CCN(CCCNC(=O)Cn3ncc4c5ccccc5n(C)c4c3=O)CC2)c1 | inactive: -15.2% | 
CCCCC(CC)CNC(=O)C1CCN(S(=O)(=O)c2cccc3nsnc23)CC1 (stereo unspecified) | inactive: -11.7% | 
O=C(O)[C@@H](O)[C@H](O)[C@H](O)[C@@H](O)C(=O)O | inactive: 5.81% | 
N#Cc1nc(-c2ccc(COc3ccc(Cl)cc3)o2)oc1N1CCN(c2ccccc2)CC1 | inactive: -15.6% | 
CCOc1ccc(NC(=O)CCn2cnc3onc(-c4ccc(F)cc4)c3c2=O)cc1 | inactive: -7.2% | 
O=C(CSc1nc2c(oc3ccccc32)c(=O)n1-c1ccccc1F)Nc1ccccc1 | inactive: -20.4% | 
OC[C@H]1O[C@H](O[C@]2(CCl)O[C@H](CCl)[C@@H](O)[C@@H]2O)[C@H](O)[C@@H](O)[C@H]1Cl | inactive: 9.57% | 
CNC(=O)c1cc(Oc2ccc(NC(=O)Nc3cc(C(C)(C)C)nn3-c3ccc4ncccc4c3)c(F)c2)ccn1 | inactive: -26.2% | 
Cn1c(=O)cc(SCC(=O)N2CCN(c3ccc(F)cc3)CC2)c2ccc(Cl)cc21 | inactive: -3.56% | 
CC(C)CN1CCc2nc(N3CCN(C)CC3)ncc2C1 | inactive: -2.28% | 
Cc1ccc(Nc2c3c(nc4nncn24)CCC3)cc1C | inactive: -17.5% | 
O=C(CN1C(=O)COc2ccc(S(=O)(=O)N3CCOCC3)cc21)NCc1ccc(F)cc1 | inactive: 0.284% | 
